From the supplement of paper PMC8748497
Some of the results follow.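 The calls were made as follows: active = fold change of at least 2 over DMSO control; inactive = below 2-fold.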 Single values are uncertain, as repeats are few or missing.

Test system: HEK293 ARE/NRF2-luciferase reporter
Assay: ARE/NRF2 luciferase reporter activity, fold change over DMSO control; higher = stronger NRF2/ARE reporter activation
Conditions: 10 µM; 24 h

Compound | ARE/NRF2 luciferase reporter activity
O=C(O)/C=C/C=C/c1ccccc1 | inactive: 0.921
N=C(N)NS(=O)(=O)c1ccc(N)cc1 | inactive: 0.841
CCC[C@@H]1C[C@@H](C(=O)N[C@@H]([C@H]2O[C@H](SC)[C@H](O)[C@@H](O)[C@H]2O)[C@@H](C)O)N(C)C1 | inactive: 0.893
Cc1ccnc2c1NC(=O)c1cccnc1N2C1CC1 | inactive: 0.842
CCC(C(=O)O)c1ccccc1 (configuration not stated) | inactive: 1.13
CC(=O)O[C@H]1CC[C@]2(C)C3=C(CC[C@H]2C1(C)C)[C@]1(C)CC[C@H]([C@H](C)CCC=C(C)C)[C@@]1(C)CC3 | inactive: 1.73
CNCCCC1c2ccccc2C=Cc2ccccc21 | inactive: 0.829
Cc1cc(/C=C/c2ccc3cc(N(C)C)ccc3[n+]2C)c(C)n1-c1ccccc1 | inactive: 0.231
CN1CCC[C@@H]1CCO[C@](C)(c1ccccc1)c1ccc(Cl)cc1 | inactive: 0.426
O=C(O)CCCCC(=O)O | inactive: 0.91
O=c1oc2ccccc2c(O)c1Cc1c(O)c2ccccc2oc1=O | inactive: 0.958
CC1(C)CCC2=C(O1)c1ccccc1C(=O)C2=O [beta-LAPACHONE] | inactive: 0.155
Nc1nc2ccc(OC(F)(F)F)cc2s1 | active: 2.23
COc1c(C)c2c(c(O)c1C/C=C(\C)CCC(=O)OCCN1CCOCC1)C(=O)OC2 | inactive: 0.208
C[C@H](N)CO | inactive: 0.764
COc1cc(/C=C/C(=O)N2CCCCCCC2)cc(OC)c1OC | inactive: 1.58
NCCS(=O)(=O)O | inactive: 0.893
